Data reported in patent US20110236504A1, “VERSATILE DISINFECTANT” (priority 2008, published 2011).

Test system: Staphylococcus aureus 209P and Escherichia coli 0-157 (mean values)
Experiment: Death rate over time, metal ion in purified water
Type: cell-based

O=[N+]([O-])[O-].[Ag+] [Ag^+, AgNO3]
Death rate (0.01 ppm, 1 min): 0%
Death rate (0.01 ppm, 3 min): 0%
Death rate (0.01 ppm, 5 min): 0%
Death rate (0.01 ppm, 10 min): 15%
Death rate (0.01 ppm, 15 min): 35%
Death rate (0.01 ppm, 30 min): 70%
Death rate (0.01 ppm, 60 min): 100%
Death rate (0.1 ppm, 1 min): 0%
Death rate (0.1 ppm, 3 min): 0%
Death rate (0.1 ppm, 5 min): 0%
Death rate (0.1 ppm, 10 min): 30%
Death rate (0.1 ppm, 15 min): 50%
Death rate (0.1 ppm, 30 min): 85%
Death rate (0.1 ppm, 60 min): 100%
Death rate (3 ppm, 1 min): 0%
Death rate (3 ppm, 3 min): 10%
Death rate (3 ppm, 5 min): 20%
Death rate (3 ppm, 10 min): 40%
Death rate (3 ppm, 15 min): 80%
Death rate (3 ppm, 30 min): 100%
Death rate (10 ppm, 1 min): 0%
Death rate (10 ppm, 3 min): 25%
Death rate (10 ppm, 5 min): 35%
Death rate (10 ppm, 10 min): 50%
Death rate (10 ppm, 15 min): 100%

O.O.O.O.O.O.[Cl-].[Cl-].[Co+2] [Co^2+, CoCl2•6H2O]
Death rate (100 ppm, 1 min): 0%
Death rate (100 ppm, 3 min): 0%
Death rate (100 ppm, 5 min): 0%
Death rate (100 ppm, 10 min): 0%
Death rate (100 ppm, 15 min): 5%
Death rate (100 ppm, 30 min): 10%
Death rate (100 ppm, 60 min): 20%
Death rate (100 ppm, 90 min): 30%
Death rate (100 ppm, 120 min): 75%
Death rate (200 ppm, 1 min): 0%
Death rate (200 ppm, 3 min): 0%
Death rate (200 ppm, 5 min): 0%
Death rate (200 ppm, 10 min): 5%
Death rate (200 ppm, 15 min): 10%
Death rate (200 ppm, 30 min): 15%
Death rate (200 ppm, 60 min): 25%
Death rate (200 ppm, 90 min): 45%
Death rate (200 ppm, 120 min): 85%
Death rate (350 ppm, 1 min): 0%
Death rate (350 ppm, 3 min): 0%
Death rate (350 ppm, 5 min): 0%
Death rate (350 ppm, 10 min): 10%
Death rate (350 ppm, 15 min): 20%
Death rate (350 ppm, 30 min): 25%
Death rate (350 ppm, 60 min): 50%
Death rate (350 ppm, 90 min): 65%
Death rate (350 ppm, 120 min): 100%
Death rate (500 ppm, 1 min): 0%
Death rate (500 ppm, 3 min): 0%
Death rate (500 ppm, 5 min): 0%
Death rate (500 ppm, 10 min): 15%
Death rate (500 ppm, 15 min): 20%
Death rate (500 ppm, 30 min): 50%
Death rate (500 ppm, 60 min): 70%
Death rate (500 ppm, 90 min): 100%

O.O.O.O.O.O=S(=O)([O-])[O-].[Cu+2] [Cu^2+, CuSO4•5H2O]
Death rate (2 ppm, 1 min): 0%
Death rate (2 ppm, 3 min): 0%
Death rate (2 ppm, 5 min): 5%
Death rate (2 ppm, 10 min): 10%
Death rate (2 ppm, 15 min): 20%
Death rate (2 ppm, 30 min): 35%
Death rate (2 ppm, 60 min): 50%
Death rate (2 ppm, 90 min): 60%
Death rate (2 ppm, 120 min): 85%
Death rate (20 ppm, 1 min): 0%
Death rate (20 ppm, 3 min): 0%
Death rate (20 ppm, 5 min): 10%
Death rate (20 ppm, 10 min): 20%
Death rate (20 ppm, 15 min): 35%
Death rate (20 ppm, 30 min): 50%
Death rate (20 ppm, 60 min): 70%
Death rate (20 ppm, 90 min): 85%
Death rate (20 ppm, 120 min): 100%
Death rate (50 ppm, 1 min): 0%
Death rate (50 ppm, 3 min): 0%
Death rate (50 ppm, 5 min): 10%
Death rate (50 ppm, 10 min): 30%
Death rate (50 ppm, 15 min): 50%
Death rate (50 ppm, 30 min): 70%
Death rate (50 ppm, 60 min): 90%
Death rate (50 ppm, 90 min): 100%
Death rate (200 ppm, 1 min): 0%
Death rate (200 ppm, 3 min): 10%
Death rate (200 ppm, 5 min): 15%
Death rate (200 ppm, 10 min): 40%
Death rate (200 ppm, 15 min): 60%
Death rate (200 ppm, 30 min): 80%
Death rate (200 ppm, 60 min): 100%

O.O.O.O.O.O.O.O=S(=O)([O-])[O-].[Ni+2] [Ni^2+, NiSO4•7H2O]
Death rate (10 ppm, 1 min): 0%
Death rate (10 ppm, 3 min): 0%
Death rate (10 ppm, 5 min): 0%
Death rate (10 ppm, 10 min): 5%
Death rate (10 ppm, 15 min): 10%
Death rate (10 ppm, 30 min): 15%
Death rate (10 ppm, 60 min): 20%
Death rate (10 ppm, 90 min): 30%
Death rate (10 ppm, 120 min): 60%
Death rate (50 ppm, 1 min): 0%
Death rate (50 ppm, 3 min): 0%
Death rate (50 ppm, 5 min): 0%
Death rate (50 ppm, 10 min): 5%
Death rate (50 ppm, 15 min): 15%
Death rate (50 ppm, 30 min): 25%
Death rate (50 ppm, 60 min): 35%
Death rate (50 ppm, 90 min): 50%
Death rate (50 ppm, 120 min): 70%
Death rate (150 ppm, 1 min): 0%
Death rate (150 ppm, 3 min): 0%
Death rate (150 ppm, 5 min): 5%
Death rate (150 ppm, 10 min): 10%
Death rate (150 ppm, 15 min): 25%
Death rate (150 ppm, 30 min): 35%
Death rate (150 ppm, 60 min): 50%
Death rate (150 ppm, 90 min): 70%
Death rate (150 ppm, 120 min): 90%
Death rate (300 ppm, 1 min): 0%
Death rate (300 ppm, 3 min): 0%
Death rate (300 ppm, 5 min): 10%
Death rate (300 ppm, 10 min): 15%
Death rate (300 ppm, 15 min): 40%
Death rate (300 ppm, 30 min): 50%
Death rate (300 ppm, 60 min): 75%
Death rate (300 ppm, 90 min): 90%
Death rate (300 ppm, 120 min): 100%

O.O.O.O.O.O.O.O=S(=O)([O-])[O-].[Zn+2] [Zn^2+, ZnSO4•7H2O]
Death rate (5 ppm, 1 min): 0%
Death rate (5 ppm, 3 min): 0%
Death rate (5 ppm, 5 min): 0%
Death rate (5 ppm, 10 min): 5%
Death rate (5 ppm, 15 min): 10%
Death rate (5 ppm, 30 min): 15%
Death rate (5 ppm, 60 min): 25%
Death rate (5 ppm, 90 min): 50%
Death rate (5 ppm, 120 min): 80%
Death rate (12 ppm, 1 min): 0%
Death rate (12 ppm, 3 min): 0%
Death rate (12 ppm, 5 min): 5%
Death rate (12 ppm, 10 min): 10%
Death rate (12 ppm, 15 min): 20%
Death rate (12 ppm, 30 min): 25%
Death rate (12 ppm, 60 min): 40%
Death rate (12 ppm, 90 min): 65%
Death rate (12 ppm, 120 min): 90%
Death rate (100 ppm, 1 min): 0%
Death rate (100 ppm, 3 min): 0%
Death rate (100 ppm, 5 min): 5%
Death rate (100 ppm, 10 min): 20%
Death rate (100 ppm, 15 min): 30%
Death rate (100 ppm, 30 min): 40%
Death rate (100 ppm, 60 min): 60%
Death rate (100 ppm, 90 min): 80%
Death rate (100 ppm, 120 min): 100%
Death rate (500 ppm, 1 min): 0%
Death rate (500 ppm, 3 min): 0%
Death rate (500 ppm, 5 min): 10%
Death rate (500 ppm, 10 min): 25%
Death rate (500 ppm, 15 min): 50%
Death rate (500 ppm, 30 min): 65%
Death rate (500 ppm, 60 min): 100%
